Read counts are not given, so values of variants with three or more changes are uncertain.
B1: CPEB3 Ribozyme (parent)
chain: UAACAGGGGGCCACAGCAGAAGCGUUCACGUCGCAGCCCCUGUCAGAUUCUGGUGAAUCUGCGAAUUCUGCUGUAUAUCUC

Variants of: B1
Assay: self-cleavage, relative activity (ratio to wild type); higher = more cleavage; in vitro, sequencing
Outline: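 CPEB3 self-cleaving ribozyme mutant libraries were made by rounds of error-prone PCR, barcoded, and transcribed in vitro with T7 RNA polymerase for 5 hours at 37°C. Cleavage occurred during transcription and a 15 min DNase I step before EDTA stop. RNAs were reverse transcribed with template switching and Illumina-sequenced, with DNA sequencing mapping barcodes to variants. Relative activity is the variant's cleaved/total read fraction divided by wild type's (minimum 5 reads), averaged across three batches.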

Variant	self-cleavage
UAACAGGGGGCCACAGCAGAAGCGUUCACGUCGCAGCGCCUGUCAGAUUCUGGUGAAACUGCGAAUUCCGCCGUAUAUCCC [C38G U58A U69C U72C U80C]	0.06
UAACAGGGGGCCACAGCAGAAGCGUUCACGUCGCAGCUCCUGUCAGACUCUGGUGAAUCUGCGAAUUCUGCUGUACAUCUC [C38U U48C U76C]	0.4
UAACAGGGGGCCACAGCAGAAGCGUUCACGUCGCAGCCGCUGCCAGAUUCUGGUGAACCUGCGAGUUCUGCUGUAUAUCUC [C39G U43C U58C A65G]	0.28
UAACAGGGGGCCACAGCAGAAGCGUUCACGUCGCAGCCCUUGUCAGAUUCUGGUGAAUCUGCGAAUUCUGCUGUUUGUCUC [C40U A75U A77G]	0.65
UAACAGGGGGCCACAGCAGAAGCGUUCACGUCGCAGCCCAUGUCUGAUUCUGGUGAAUCUGCGAAUUCUGCUGUAUAUCAC [C40A A45U U80A]	0.27
UAACAGGGGGCCACAGCAGAAGCGUUCACGUCGCAGCCUCUGUCAGAUCCUGGUGAAUCUGCGAAUUCUGCUGUAUAUCCC [C39U U49C U80C]	0.5
UAACAGGGGGCCACAGCAGAAGCGUUCACGUCGCAGCCCUUGUCAGAUUCUGGUGAGUCUGCGAAUCCGGCUGUAUAUCUC [C40U A57G U67C U69G]	0.14
UAACAGGGGGCCACAGCAGAAGCGUUCACGUCGCAGCCACUGUCAGAUUCUGGUAAAUCUGCGAAUUCUGCAGUACACCUC [C39A G55A U72A U76C U78C]	0.07
UAACAGGGGGCCACAGCAGAAGCGUUCACGUCGCAGCCUCUGUCAGAUUCAGGUGAAUCUGCGAAUUCUGCCGUAUAUCUC [C39U U51A U72C]	1.05
UAACAGGGGGCCACAGCAGAAGCGUUCACGUCGCAGCCUCUGUCGGAAUCUGGUGAAUCUGCGAAUUCUGCUGUAUAUCUC [C39U A45G U48A]	0.21
UAACAGGGGGCCACAGCAGAAGCGUUCACGUCGCAGCCCAUGUAAGAUUCUGGUGAAUCUGCGAAUUCUGCAGUAUAUCUC [C40A C44A U72A]	0.15
UAACAGGGGGCCACAGCAGAAGCGUUCACGUCGCAGCCCAUGUCAGAUUCUGGUGAAUCAGCGAAUUCGGCUGUAUAUCUC [C40A U60A U69G]	0.08
UAACAGGGGGCCACAGCAGAAGCGUUCACGUCGCAGCCCUUGUCAGAUUCUGGUGAGUCUGCGAAUUCGGCUGUAUAUCUC [C40U A57G U69G]	0.53
UAACAGGGGGCCACAGCAGAAGCGUUCACGUCGCAGCCCUUGUCAGAUUCUGGUAAAUCUGCGAGUUCUGCUGUAUAUCUC [C40U G55A A65G]	0.41
UAACAGGGGGCCACAGCAGAAGCGUUCACGUCGCAGCCCUUGUUAGAUUCUGGUGAAUCUGCGAGUUCCGCUGUAUUUCUC [C40U C44U A65G U69C A77U]	0.07
UAACAGGGGGCCACAGCAGAAGCGUUCACGUCGCAGCCACUGUCAGAUUCAGGUGGAUCUGCGAACUCUGCUGUAUAUCUC [C39A U51A A56G U66C]	0.32
UAACAGGGGGCCACAGCAGAAGCGUUCACGUCGCAGCUCCUGUCAGAUUCUGGUGGUUCUGCGAAUUCUGCUGUAUAACUA [C38U A56G A57U U78A C81A]	0.13

Variant	self-cleavage
UAACAGGGGGCCACAGCAGAAGCGUUCACGUCGCAGCCUCUGUCAGAUUCUGGUGAAUCUGCGAAUUCCGCUGCAUAUCUC [C39U U69C U74C]	0.41
UAACAGGGGGCCACAGCAGAAGCGUUCACGUCGCAGCCUCUGUCAGAUUCUGGUGAAUCUGCGAAUUCCGCUGUAUACCUC [C39U U69C U78C]	0.53
UAACAGGGGGCCACAGCAGAAGCGUUCACGUCGCAGCCCUUGUGAGAUUCUGGUGAAUCUGCGAAUUCAGCAGUAUAUCUC [C40U C44G U69A U72A]	0.08
UAACAGGGGGCCACAGCAGAAGCGUUCACGUCGCAGCCCUUGUCAGAUUCUGGUGGGUCUGCGAAUUCUUCUGUAUAUCUC [C40U A56G A57G G70U]	0.15
UAACAGGGGGCCACAGCAGAAGCGUUCACGUCGCAGCUCCUGUCCGAUUCUGGUGAAUCCGCGAAUUCUGCUGUAUAUCUC [C38U A45C U60C]	0.37
UAACAGGGGGCCACAGCAGAAGCGUUCACGUCGCAGCCCUUAUCAGAUUCUGGUGAAUCUGCGAAUUCUGCUGUAUAUCAC [C40U G42A U80A]	0.35
UAACAGGGGGCCACAGCAGAAGCGUUCACGUCGCAGCCUCUGUCAGUUUCUGGUGAAUCGGCGAAUUCUGCUGUAUAUCUC [C39U A47U U60G]	0.37
UAACAGGGGGCCACAGCAGAAGCGUUCACGUCGCAGCCCUUGACAGAUUCUGGUGAAUCUGCGAAUUCUGCAGUAUAUCUC [C40U U43A U72A]	0.24
UAACAGGGGGCCACAGCAGAAGCGUUCACGUCGCAGCCCAAGUCAGAUUCUGGUGAAUCAGCGAAUUCUGCAGUAUAUCUC [C40A U41A U60A U72A]	0.15
UAACAGGGGGCCACAGCAGAAGCGUUCACGUCGCAGCCCAUGUCAGAUUCUGGUGAAUCUGCGAGUUCUGCGGUAUAUCUC [C40A A65G U72G]	0.1
UAACAGGGGGCCACAGCAGAAGCGUUCACGUCGCAGCUCCUGUCAGCUUCUGGUGGAUCUGCGAAUUCUGCUGUAUAUCUC [C38U A47C A56G]	0.38
UAACAGGGGGCCACAGCAGAAGCGUUCACGUCGCAGCCCUUGUCAGAUUCUGGUGAGUCUGCGAAAUCUGCUGUAUAUCUC [C40U A57G U66A]	0.16
UAACAGGGGGCCACAGCAGAAGCGUUCACGUCGCAGCCCUUAUCAGAUUCUGGUGAACCUGCGAAUUCUGCUGUAUAUCUC [C40U G42A U58C]	0.16
UAACAGGGGGCCACAGCAGAAGCGUUCACGUCGCAGCUCCUGCCUGAUUCUGGUGAAUCUGCGAAUUCUGCUGAAUAUCCC [C38U U43C A45U U74A U80C]	0.14
UAACAGGGGGCCACAGCAGAAGCGUUCACGUCGCAGCCCUUGUCAGAUUCUGGUGUAUCCGCGAAUCCUGCUGUAUAUCCC [C40U A56U U60C U67C U80C]	0.16
UAACAGGGGGCCACAGCAGAAGCGUUCACGUCGCAGCCACUGUCAGAUUCUGGUGAAUCUGCGUACUCUGCUGUAUAUCUC [C39A A64U U66C]	0.16
UAACAGGGGGCCACAGCAGAAGCGUUCACGUCGCAGCCGCUGUCAGGUUCUGGUGAAUCUGCGAUUUCUGCUGUAUAUCUC [C39G A47G A65U]	0.2
